The text below walks through data of the supplement of paper PMC11417369.

The other results are listed elsewhere or left out.

For the assay, the system named is PfAP2-HC AP2 domain (GST-tagged). In words: gcPBM binding intensity (ln(normalized median fluorescence intensity)); higher = stronger DNA binding. The gist of the method:
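For binding intensity, the highest Masliner-normalised natural-log median intensity across replicate spots of either probe orientation was taken. Protein bound to the array was stained with Alexa488 anti-GST antibody and scanned at 488 nm. The protein, GST-tagged P. falciparum DNA-binding domains from E. coli at about 25 μg on average, had been applied for 1 h to an Agilent 4 × 180k array of primer-extended double-stranded 36-bp intergenic genomic probes and negative controls.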
Turning to “TTTTTTTATAAAAATGAACACACACCGATATATATA [CACACA_site9161]”, the “gcPBM binding intensity (ln)” value came out at 10.2. With “AAAAAAAAAAAAAAAACACACATAAATAGCTCAAAT [CACACA_site3973]”, the “gcPBM binding intensity (ln)” value was 9.92.

Take “CACATACCCATACAAACACACATTATATATATATAT [CACACA_site4965]”: the “gcPBM binding intensity (ln)” value came out at 10. As for “ATATCGTGTGCATTAACACACATTTATTTGAATAAA [CACACA_site7162]”, the “gcPBM binding intensity (ln)” value came to 9.84. In the case of “GATATATAAATAGATACACACATACATACATACATA [CACACA_site6260]”, the “gcPBM binding intensity (ln)” value is 10.1. Regarding “TACGATTAAAAAAAATGTACAGATTTTTATAGAATA [XGTACX_site6561]”, the “gcPBM binding intensity (ln)” value was 9.36. For “ATATTACCCATATATGCACACATTGTAGTTATTTAT [CACACA_site2636]”, the “gcPBM binding intensity (ln)” value was determined as 10.2.

Turning to “TTTTGTAGCAAAAAATAGGAAAAAAAAAAATTAAAT [GTGCAC_negctrl_site8]”, the “gcPBM binding intensity (ln)” value came to 9.35.

As for “ATATAATTACCATATGGTACACACATATATATATGT [XGTACX_site7393]”, the “gcPBM binding intensity (ln)” value stood at 10.2. In the case of TTAAGATACAAAAAAGTGCATATTTTTTAACAAAAA it was 9.57; in that of “TTAAGATATATAAAGAGTACACATAAGAGTAATGCT [XGTACX_site58]”, 9.76. On to “TATAATACATTATATTGTACTATATTATAATAAATT [XGTACX_site5934]”, for which the “gcPBM binding intensity (ln)” value came out at 9.53.

For the sequence “ACAAATAAAAATATTACACACACTATTCTAGTGATA [CACACA_site6812]”, the “gcPBM binding intensity (ln)” value is 9.99.

“GACAAATTATTGTGTACACAATATTATTATATATAC [CACACA_site6020]”: the “gcPBM binding intensity (ln)” value is 9.82. In the case of “CTTATGTTTTTTAAGTGTACATATTATACGTATTAT [XGTACX_site1176]” it was 9.85. Next, “TAAATATATATAATTACACACTTTTCTATAATATGA [CACACA_site711]”: 9.58. Next, “AATATAAACATAGATAGATAAATAAATAAATAAACA [GTGCAC_negctrl_site567]”: 9.8; “AACAGATATATATGTAGTACATGTTCTAGATATTTT [XGTACX_site1208]”: 9.75; “AATAATTGTTAAAGGTGTACAATACGTATGTAAGAA [XGTACX_site1328]”: 10.1. With “ATGTAGACATAATGGGGTACAAAAAAAAAAAAAAAA [XGTACX_site881]”, the “gcPBM binding intensity (ln)” value worked out at 9.49.

Take “TATCATTTTGTATATAGTACATATATAAAATCGTTA [XGTACX_site3875]”: the “gcPBM binding intensity (ln)” value was found to be 9.48. In the case of “AAAAAAAATAAAAATAAAAATAAAAATAAAAATAAA [GTGCAC_negctrl_site437]” it was 9.21; in that of “CAAGCACCCAGACACACACACACACCCACACCCACA [CACACA_site369]”, 11.2; in that of “ATAAAAATAACATATAAACACACATATATATATATA [CACACA_site9267]”, 9.64.

On to “AGTCATTAAATATAATGTACATGGAAAAACAGCTGA [XGTACX_site7944]”, for which the “gcPBM binding intensity (ln)” value is 9.73.
